{"source": "PubChem BioAssay AID624417", "about": "(National Center for Advancing Translational Sciences (NCATS), 2012)", "note": "In all, about 410,000 compounds went through this assay and about 6,400 (1.6%) were called active. The inconclusive results got no clear call from the source; some entries with a clear call stand among them for comparison. Calls come from the whole dose curve; as a rule, active = well fitted inhibition curve with a large enough effect; inconclusive = small, poorly fitted or top-dose-only effect; inactive = no such curve, though single readings can be large or run the other way. No potency is given beside an inconclusive call; the fits are too rough. Potency is the fitted concentration of half-maximal effect; tags give direction and shape of the fitted curve."}
{"molecular_target": "Glucagon-like peptide 1 receptor (Homo sapiens) (UniProt P43220)", "sequence (P43220 whole entry, looked up)": "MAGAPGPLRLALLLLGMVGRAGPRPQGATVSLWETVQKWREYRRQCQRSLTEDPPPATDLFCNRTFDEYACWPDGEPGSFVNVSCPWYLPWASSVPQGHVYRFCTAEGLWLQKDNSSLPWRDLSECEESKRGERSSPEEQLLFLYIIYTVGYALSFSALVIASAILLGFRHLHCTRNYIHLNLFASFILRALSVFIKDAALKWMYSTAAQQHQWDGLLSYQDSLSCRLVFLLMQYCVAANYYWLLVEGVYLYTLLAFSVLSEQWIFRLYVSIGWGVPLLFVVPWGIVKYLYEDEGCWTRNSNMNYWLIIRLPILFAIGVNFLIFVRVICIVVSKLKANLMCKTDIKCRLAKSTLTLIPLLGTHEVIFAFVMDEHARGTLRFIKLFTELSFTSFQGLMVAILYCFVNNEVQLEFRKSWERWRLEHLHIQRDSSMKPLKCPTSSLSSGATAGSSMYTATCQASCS", "test": "qHTS of GLP-1 Receptor Inverse Agonists (Inhibition Mode); note: nearly all actives have a fitted effect of over 55% in size", "settings": "HEK293 GLP-1R CRE-luciferase, luminescence, 24 h, GLP-1R form is constitutively active; series mostly up to 38.3 µM", "in_short": "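HEK293 cells stably co-expressing a cAMP-responsive luciferase reporter and constitutively active GLP-1R were seeded, incubated 12 h, then exposed to compounds for 24 h at 37 C. Luminescence was read 12 min after detection reagent; inverse agonists lower signal.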"}
{"smiles": "O=C(Nc1cnc2ccccn2c1=O)c1ccc(Cl)cc1Cl", "Potency": "inconclusive [inhibitor, full curve, poor fit]"}
{"smiles": "CCOc1ccc2nc(N(CCN(C)C)C(=O)c3cc4ccccc4cc3OC)sc2c1", "Potency": "inconclusive [inhibitor, full curve, poor fit]"}
{"smiles": "Cc1onc(-c2ccccc2Cl)c1C(=O)OCc1cnc(Cl)s1", "Potency": "inconclusive [inhibitor, partial curve, poor fit]"}
{"smiles": "Cc1ccccc1CNC(=O)c1ccccc1N(C)S(=O)(=O)c1ccccc1", "Potency": "inconclusive [inhibitor, single point]"}
{"smiles": "O=C(NCCC(=O)N1CCN(S(=O)(=O)c2ccc(Cl)cc2)CC1)Nc1ccccc1", "Potency": "inconclusive [inhibitor, partial curve]"}
{"smiles": "CCOc1ccc(CCNC(=O)CCCn2nc(C)c3c(C)n(-c4ccccc4)nc3c2=O)cc1", "Potency": "inconclusive [inhibitor, full curve, poor fit]"}
{"smiles": "c1ccc(OCCn2cnc3ccccc32)cc1", "Potency": "inactive"}
{"smiles": "O=C(O)c1ccccc1NC(c1ccccc1)c1ccc(Cl)cc1", "note": "(centres undefined)", "Potency": "active: 11.2 µM"}
{"smiles": "O=C(/C=C/c1ccc(Cl)c([N+](=O)[O-])c1)c1ccc(O)cc1", "Potency": "inconclusive [inhibitor, partial curve, poor fit]"}
{"smiles": "Cc1cc(N/N=C/c2cccc(F)c2)nc(NCc2ccccc2)n1", "Potency": "inconclusive [inhibitor, partial curve, poor fit]"}
{"smiles": "CNC(=S)N(CCc1c(C)[nH]c2ccc(C)cc12)Cc1ccc(OC)c(OC)c1", "Potency": "inconclusive [inhibitor, single point]"}
{"smiles": "FC(F)(F)c1cc(-c2ccccc2)nc(-n2cc(Cl)cn2)n1", "Potency": "inconclusive [inhibitor, single point]"}
{"smiles": "Cc1csc2c(N3CCN(C(=O)c4ccc(C(C)(C)C)cc4)CC3)ncnc12", "Potency": "inconclusive [inhibitor, single point]"}
{"smiles": "CC(C)c1ccc(N(CC(=O)NCc2ccco2)C(=O)CCC(=O)Nc2ccccn2)cc1", "Potency": "inconclusive [inhibitor, single point]"}
{"smiles": "COc1ccc(OC)c(N2C(=O)CC(Cc3cc(C)cc(C)c3)C2=O)c1", "note": "(centres undefined)", "Potency": "inconclusive [inhibitor, single point]"}
{"smiles": "COc1ccc([N+](=O)[O-])cc1NC(=O)CC(c1ccccc1)c1ccccc1", "Potency": "inconclusive [inhibitor, single point]"}
{"smiles": "CC(=O)N1CCN(C(=O)OC2CC3CC2[C@H]2CCCCN2C3=O)CC1", "note": "(some centres undefined)", "Potency": "inactive"}
{"smiles": "CC1CCN(S(=O)(=O)c2ccc3c(c2)N(CC(=O)NCCCN2CCCCC2)C(=O)CS3)CC1", "Potency": "inconclusive [inhibitor, partial curve, poor fit]"}
{"smiles": "COC(=O)c1ccc2nc(-c3ccc(Cl)cc3)c(Cc3ccc(OC)cc3C)n2c1", "Potency": "inconclusive [inhibitor, full curve, poor fit]"}
{"smiles": "Clc1cccc(Cc2c(C3CCCCC3)nc3ccc(Cl)cn23)c1", "Potency": "inconclusive [inhibitor, single point]"}
{"smiles": "O=C(CCC1CCCN(Cc2ccc3c(c2)OCCO3)C1)NCc1ccc(F)c(F)c1", "note": "(centres undefined)", "Potency": "inconclusive [inhibitor, partial curve, poor fit]"}
{"smiles": "Cc1ccc(C(=O)Nc2ccon2)cc1S(=O)(=O)N1CCOCC1", "Potency": "inactive"}
{"smiles": "CCCCN(C=O)c1c(CC)nc2ccc(C(=O)Nc3cc(-c4ccccc4)ccc3OC)cn12", "Potency": "inconclusive [inhibitor, partial curve, poor fit]"}
{"smiles": "Cc1ccccc1C(=O)c1cccn1CC(=O)NCCCN1CC(C)CC(C)C1", "note": "(centres undefined)", "Potency": "inconclusive [inhibitor, single point]"}
{"smiles": "COc1cccc(NC(=O)C2(C)CCN2C(=O)CCC2CCCC2)c1", "note": "(centres undefined)", "Potency": "inactive"}
{"smiles": "COc1ccc(C(=O)Nc2ccc3nc(SCC(=O)N(C)c4ccccc4)sc3c2)cc1", "Potency": "inconclusive [inhibitor, single point]"}
{"smiles": "CC(=O)N1CC(=O)N=C1SCC(=O)Nc1nc(-c2ccccc2)c(-c2ccccc2)s1", "Potency": "inconclusive [inhibitor, single point]"}
{"smiles": "CC(C)c1ccccc1NC(=O)CNCCc1ccc(C(F)(F)F)cc1", "Potency": "inconclusive [inhibitor, partial curve, poor fit]"}
{"smiles": "O=C(CSc1cn(CCNC(=O)c2cccc(C(F)(F)F)c2)c2ccccc12)Nc1ccc2c(c1)OCCO2", "Potency": "inconclusive [inhibitor, partial curve, poor fit]"}
{"smiles": "CC(C)(C)c1ccc2c(c1)N(CC(=O)NCCCN1CCN(c3ccccc3F)CC1)C(=O)CO2", "Potency": "inconclusive [inhibitor, single point]"}
{"smiles": "C=CCNC(=S)N/N=C(\\C)c1cccc(OC)c1", "Potency": "inconclusive [inhibitor, full curve, poor fit]"}
{"smiles": "Cc1cc(Br)cn2c(Cc3ccsc3)c(-c3cccc(Cl)c3)nc12", "Potency": "inconclusive [inhibitor, partial curve, poor fit]"}
{"smiles": "CCc1ccc(CNCc2cccs2)cc1", "Potency": "inconclusive [inhibitor, single point]"}
{"smiles": "COc1ccc(NC(=O)c2cnn(-c3ccccc3)c2C)c(OC)c1", "Potency": "inactive"}
{"smiles": "O=C(Nc1nc2ccc(F)cc2s1)c1nc(S(=O)(=O)Cc2ccccc2F)ncc1Cl", "Potency": "inactive"}
{"smiles": "Cc1[nH]c(-c2ccc(F)cc2)cc1C(=O)N1CCN(c2cccc(Cl)c2)CC1", "Potency": "active: 5.01 µM"}
{"smiles": "CSc1cccc(NC(=S)N(CCCN2CCCC2)Cc2cccs2)c1", "Potency": "inconclusive [inhibitor, single point]"}
{"smiles": "CCc1nc2ccc(C(=O)NCC3CCCCC3)cn2c1N(C)Cc1ccc(OC)cc1", "Potency": "inconclusive [inhibitor, single point]"}
{"smiles": "CCc1ccc(NC(=O)CSc2nc3ccccc3c(=O)n2CCCC(=O)NCCCN2CCOCC2)cc1", "Potency": "inconclusive [inhibitor, single point]"}
